The values below come from ChEMBL document CHEMBL4888484, “Replenishing the malaria drug discovery pipeline: Screening and hit evaluation of the MMV Hit Generation Library 1 (HGL1) against asexual blood stage Plasmodium falciparum ,using a nano luciferase reporter read-out” (2022).

Each structure is given as a SMILES string. The whole screen tested about 150,000 compounds, of which about 540 (0.36%) showed an effect of 50% or more. This is one part of the list.

The assay relates to Plasmodium falciparum. The assay is described as follows: Primary screen in NF54 nanoGlo assay, in single point, at 2uM, 72h; a lower Z score goes with more inhibition. Type of assay: functional, Erythrocyte. The conditions noted are these: timepoint 72 hour.
Consider `O=S(=O)(c1cc(Cl)ccc1Cl)N1CN(C2CCCC2)c2nc3ccccc3nc21`, for which the “% Inhibition” value is given as -13% and the Z score is 1.39.
For the molecule `Nc1cncc(-c2ccc(NC3CCCC3)nn2)c1`, the “% Inhibition” value stood at 4% and the Z score was -0.6.
In the case of `CCOc1ccc(S(=O)(=O)n2c(=O)n(S(=O)(=O)c3ccc(OCC)cc3)c3ccccc32)cc1`, the “% Inhibition” value is -3% and the Z score is 0.34.
As for `Cc1ccc2c(C(=O)N(C)CCCN3CCCC3)c[nH]c2c1`, the “% Inhibition” value is on record as 1% and the Z score was -0.17.
As for `CC1CCCN(C(=O)CN2CCNCC2=O)C1C` (centres undefined), the “% Inhibition” value is listed as -5% and the Z score is 0.66.
For the molecule `Cc1nc(C)c(C)c(N2Cc3cn[nH]c3C(C)(C)C2)n1`, the “% Inhibition” value is reported as -17% and the Z score was determined as 1.81.
For the molecule `OCCC[C@@H]1CN(c2nc(-c3ccccc3)no2)CC[C@@H]1N1CCOCC1`, the “% Inhibition” value was -5% and the Z score amounted to 0.78.
With `CCc1ccccc1NC(=O)CN1C(=O)C(C)(C)c2cc(C)ccc21`, the “% Inhibition” value is -4% and the Z score is reported as 0.63.
For the molecule `CC(C)(C)n1nc(-c2c[nH]c3ccccc23)nc1[C@@H]1CCC[C@H](N)C1`, the “% Inhibition” value worked out at 15% and the Z score was -1.91.
As to `O=C(c1cc(Cl)c[nH]1)N1CCCCCC1CC(O)c1ccco1` (centres undefined), the “% Inhibition” value is -6% and the Z score turned out to be 0.9.
As to `NC(=O)N1CCCN(C(=O)CNC(=O)c2cccc(F)c2)CC1`, the “% Inhibition” value is -9% and the Z score is reported as 0.73.
For `Cc1ccc(NC(=O)C(Cc2ccccc2)C(=O)Nc2ccc(C)c(C)c2)cc1C`, the “% Inhibition” value was found to be 1% and the Z score was -0.11.
In the case of `Cc1nnc(O)nc1N1CCN(c2ccccc2)CC1`, the “% Inhibition” value turned out to be 1% and the Z score was -0.15.
As for `Cn1cc(C(=O)NC2CCN(Cc3ccccc3)CC2)cn1`, the “% Inhibition” value is recorded as -8% and the Z score is 1.44.
For `CS(=O)(=O)N1CCC(c2ccnc3ccccc23)CC1`, the “% Inhibition” value is -11% and the Z score was 1.02.
Take `Cc1ccc(CN[C@H](C)c2nnc3n2CCCCC3)c(Cl)c1`: the “% Inhibition” value was 0% and the Z score was -0.04.
Turning to `Cc1c(C(=O)N2CC(C)(C)Oc3ccccc32)cnn1-c1ccncc1`, the “% Inhibition” value came to 17% and the Z score is -1.93.
Take `Cc1noc(C)c1NC(=O)C(=O)N[C@@H](C)c1ccc(C(C)(C)C)cc1`: the “% Inhibition” value was -11% and the Z score is listed as 1.11.
On to `CCC1=N[C@@H](c2ccc(O)cc2)N(O)C1(C)C`, for which the “% Inhibition” value worked out at 6% and the Z score is on record as -1.11.
Take `O=C(CN1CCCCC1=O)N[C@@H]1COCC[C@@H]1Oc1cccc(F)c1`: the “% Inhibition” value is -1% and the Z score was 0.11.
For `CCc1nn(C)cc1C(=O)N[C@@](C)(CC)CO` the same measures were -5% and 0.73.
For `Cc1ccc(-n2[nH]c(C(=O)N(C)[C@@H](CCc3ccccc3)C(F)F)cc2=O)cc1` the same measures were -3% and 0.46.
For `C[C@@H](CNC(=O)c1ccncc1)N1CCCC1`, the “% Inhibition” value is reported as -11% and the Z score turned out to be 1.73.
Regarding `CCCS(=O)(=O)N(CCOC)CC(=O)N(Cc1ccc(Cl)cc1)C1CCN(C(=O)Nc2c(C)cccc2C)CC1`, the “% Inhibition” value is on record as -21% and the Z score is 2.09.
Regarding `NC(=O)c1ccc(Br)cc1F`, the “% Inhibition” value is reported as -3% and the Z score is 0.34.
Take `COc1cccc(CC(=O)N2CCC3(CCCCO3)CC2)c1`: the “% Inhibition” value is 2% and the Z score is on record as -0.25.
With `CCOc1cc(-c2noc(CCCC(=O)N3CCCCC3)n2)ccc1OC`, the “% Inhibition” value is -5% and the Z score is 0.91.
The matching figures for `Brc1cc(CNCc2cccnc2)cc2c1OCO2`: 2% and -0.27.
The matching figures for `COc1ccc(-c2cc(C(F)(F)F)nc(-n3nc(-c4cccc(OC)c4)c(Cl)c3-c3cccc(OC)c3)n2)cc1`: 91% and -10.21.
As for `CCS(=O)(=O)c1ccc2oc(-c3cccc(OS(=O)(=O)c4ccccc4OC(F)(F)F)c3)nc2c1`, the “% Inhibition” value is listed as -23% and the Z score is on record as 2.27.
For `CCN1CCN(C(=O)c2cccc(-c3cccc4c(O)cc(C)nc34)c2)CC1=O` the same measures were -2% and 0.32.
As for `Cc1cc2c(cn1)CN(C(=O)[C@H]1CCC(=O)N(C(C)C)C1)C2`, the “% Inhibition” value is on record as -2% and the Z score is 0.25.
For `O=C(NC1CCN(Cc2ccccc2)CC1)c1ccc2ccccc2n1` the same measures were -6% and 0.91.
As to `CC(C)CN1C(=O)[C@H](Cc2ccccc2)NC12CCN(C(=O)c1ccc(Cl)cc1)CC2`, the “% Inhibition” value is given as 33% and the Z score was -4.78.
Regarding `C[C@H]1CCCCN1CCCNC(=O)c1cc2n(n1)CCN(Cc1c(Cl)cccc1Cl)C2=O`, the “% Inhibition” value is -10% and the Z score is listed as 0.97.
On to `O=C(C[C@H](c1ccc(OCc2ccccc2)cc1)c1c[nH]c2ccc(Cl)cc12)NCc1ccccc1`, for which the “% Inhibition” value is -10% and the Z score amounted to 1.22.
For `CS(=O)(=O)c1ccc(Cl)c(C(=O)NCc2ccc(S(=O)(=O)N3CCCC3)cc2)c1` the same measures were 2% and -0.29.
On to `Cc1ccccc1[C@H]1[C@@H](C(=O)N(C)Cc2cccnc2)C[C@@](C)(C(=O)O)N1C`, for which the “% Inhibition” value came to 0% and the Z score is recorded as -0.02.
Consider `O=C(Nc1ccccc1N1CCCC1)[C@@H]1Cc2ccccc2O1`, for which the “% Inhibition” value amounted to 34% and the Z score is -4.42.
As to `CCOC1CC1C(=O)NCC(O)C(C)C` (centres undefined), the “% Inhibition” value was found to be 8% and the Z score was -1.42.
As to `COc1cc(-c2noc(-c3ccccc3)n2)ccc1OCC(=O)Nc1ccccc1`, the “% Inhibition” value is on record as -9% and the Z score was found to be 1.78.
The matching figures for `C=CCn1cc(CN(C)CCN2CCCC[C@@H]2C)c(C)n1`: -5% and 0.66.
On to `C[C@@H](CNC(=O)Cc1ccsc1)NC(=O)OC(C)(C)C`, for which the “% Inhibition” value is listed as -1% and the Z score turned out to be 0.05.
As to `CCn1c(-n2nc([C@H]3CCOC3)nc2CN2CCOC2=O)nc2ccccc21`, the “% Inhibition” value was -5% and the Z score was 0.71.
Turning to `O=C(NCC[C@H]1CCC(F)(F)C1)c1cc2n(n1)CCCC2=O`, the “% Inhibition” value is reported as -8% and the Z score is 1.08.
With `NC(=O)[C@@H]1CN(Cc2ccn(-c3ccc(Cl)cc3)n2)CCO1`, the “% Inhibition” value is -4% and the Z score is recorded as 0.65.
For `CC(C)(O)c1cc(CC2(NCc3ccc(C(F)(F)F)cc3)COC2)no1`, the “% Inhibition” value is recorded as -10% and the Z score turned out to be 1.25.
On to `Cc1noc(C)c1NC(=O)N1CCC(OCC2CC2)CC1`, for which the “% Inhibition” value is on record as -9% and the Z score amounted to 1.71.
As to `Cc1nnc(-c2cc(CCC(C)C)n(-c3cccc(C(=O)NCC(C)C)c3)n2)o1`, the “% Inhibition” value is -9% and the Z score is given as 1.54.
On to `C=CCNC(=O)c1cc(Br)ccc1OC`, for which the “% Inhibition” value was -11% and the Z score is 1.96.
For the molecule `Cc1cnc(N2CCC[C@H](CN(C)Cc3cccnc3)C2)nc1C`, the “% Inhibition” value was -4% and the Z score was 0.49.
With `O=C(NC1CC1)[C@@H]1CNCCN1C(=O)c1cc(=O)c2cccc(F)c2[nH]1`, the “% Inhibition” value is reported as -16% and the Z score is given as 1.52.

By % Inhibition is commonly meant the drop in the measured response relative to a control, in per cent.
